The values that follow come from PubChem BioAssay AID602156 (GNF / Scripps Winzeler lab, 2011).

Each structure is given as a SMILES string. Several values for one entry are separate records, joined by “and”; a condition that tells them apart may be missing. Identical values can stand only once. The list shows a part of the results. The main result of the screen is listed elsewhere. These columns were measured beside it and carry no call.

The nature of the assay: exo-erythrocytic parasite development inhibition – imaging, Malaria Box, P. yoelii, HepG2-A16-CD81EGFP, dose response (AID 602156).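 Further: infected cells exposed to compound for 48 hours before fixation.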 To be noted: P. yoelii liver stage in HepG2-A16-CD81EGFP, measured here: liver parasite size at 10 uM.
Regarding `O=c1c2c([nH]c3ccccc13)CCCCCC2`, the parasite size was determined as 42.5 um. Then `c1ccc(-c2ccc(-c3ccccn3)nc2)nc1`, with 22.3 um; and `Cc1cc(C(=O)Nc2cnn(Cc3ccc(Cl)cc3Cl)c2)no1`, with 57.8 um. For the compound `O=C(c1ccc([N+](=O)[O-])cc1)c1ccc(Cl)c(Cl)c1`, the parasite size amounted to 109 um. As for `CCCCCCCn1c2c(c(=N)c3ccccc31)CCC2`, the parasite size is 23.6 um. Compound `CN1CCN(c2ccc(Nc3c4ccccc4nc4ccccc34)cc2)CC1` came in with a parasite size of 45.8 um.

In the case of `CCOc1ccc(Nc2nc(NCc3ccccc3)c3ccccc3n2)cc1`, the parasite size came to 23.7 um. Next, `Cc1ccccc1N=Nc1ccc(NC(=O)c2ccco2)c(C)c1`: 51.9 um. Then `Cc1[nH]c2ccc(Br)cc2c(=O)c1CC(C)C`, with 30.8 um; and `CCC(=O)NC(c1ccccc1Cl)c1cc(Cl)c2cccnc2c1O` (stereo not drawn), with 55.1 um; and `CCCCN(CCCC)S(=O)(=O)c1ccc(NC(=O)c2ccco2)cc1`, with 35.3 um. On to `COC(=O)C1=C(C)NC2=C(C(=O)CC(c3ccccc3Cl)C2)C1c1ccc([N+](=O)[O-])cc1` (stereo not drawn), for which the parasite size was 61.1 um. In turn, `CN(C)c1ccc(-c2n(C)c3ccccc3[n+]2C)cc1` came in with a parasite size of 46.9 um. Then `CCCCOc1ccc(N(C(C)=O)C2=C(N3CCOCC3)C(=O)c3ccccc3C2=O)cc1`, with 74.8 um; and `CCCc1nc2ccc(NC(=O)c3ccco3)cc2c(=O)n1Cc1ccc(-c2ccccc2)cc1`, with 25.8 um. Regarding `CCC(C)(C)c1ccc(OCCOCC[n+]2ccccc2)c(C(C)(C)CC)c1`, the parasite size turned out to be 13.9 um.

In turn, `O=C1C(Nc2ccc(O)cc2)=CC(=NS(=O)(=O)c2cccs2)c2ccccc21` came in with a parasite size of 12.5 um. The compound `CCC(/C=C1\Sc2ccc(OC)cc2N1CCCS(=O)(=O)O)=C\c1sc2ccc(OC)cc2[n+]1CCCS(=O)(=O)O` had a parasite size of 18.1 um. `CC[n+]1c(/C=C/C=C2\N(C)c3ccccc3C2(C)C)n(-c2ccccc2)c2cc(Cl)ccc21` came in with a parasite size of 12.5 um. In turn, `CCC(Sc1nnc(-c2ccc(C)cc2)c(-c2ccc(C)cc2)n1)C(=O)NCCOC` (stereo not drawn) showed a parasite size of 42.6 um. On to `C=CCc1c(C)[nH]c2ccc(Br)cc2c1=O`, for which the parasite size was determined as 32.5 um. Next, `CN(C)c1oc(-c2ccc(Cl)cc2Cl)nc1[P+](c1ccccc1)(c1ccccc1)c1ccccc1`: 19.4 um; `CCOC(=O)c1c[nH]c2ccc(OC)cc2c1=O`: 30 um and 30.2 um; `CCC(C)Nc1nc(NC(C)CC)nc(N2CCCCCC2)n1` (stereo not drawn): 20.4 um.

In the case of `CCOc1ccc2ncc(S(=O)(=O)c3ccc(OC)cc3)c(N3CCN(C)CC3)c2c1`, the parasite size was determined as 63.7 um.

`CCCN(CCC)[P+](CCC)(c1ccc([P+](CCC)(N(CCC)CCC)N(CCC)CCC)cc1)N(CCC)CCC` yielded a parasite size of 28.3 um. `Cc1oc2c(c1C(=O)NCCCn1ccnc1)C(=O)c1ccccc1C2=O` returned a parasite size of 12.5 um. For `CCC1CN2CCc3cc(OC)c(OC)cc3C2CC1CC1NCCc2cc(OC)c(OC)cc21` (stereo not drawn), the parasite size came out at 13.8 um. `CCOC(=O)c1ccc2[nH]c(-c3ccccc3)cc(=O)c2c1` registered a parasite size of 20.7 um. `CCOC(=O)C1=C(C)NC2=C(C(=O)C(C(=O)OCC)C(c3ccccc3OC)C2)C1c1cc(OC)c(OC)c(OC)c1` (stereo not drawn) gave a parasite size of 104 um. Next, `CC(=O)N1c2ccc(C)cc2C(C)(c2ccccc2)CC1(C)C` (stereo not drawn): 105 um. `CC1(C)N=C(N)N=C(N)N1c1ccc(F)cc1` came in with a parasite size of 38.9 um. Compound `CCCCCc1c(C)c(C#N)c2nc3ccccc3n2c1NCCN(CC)CC` had a parasite size of 74 um. The compound `C=CCN1C(=Cc2cc[n+](C)cc2)Sc2ccccc21` gave a parasite size of 26.7 um. For the compound `Nc1ccc(N2CCCCCC2)cc1`, the parasite size was found to be 77.7 um. `c1ccc2cc3c(N4CCN(CCN5CCN(c6ccnc7cc8ccccc8cc67)CC5)CC4)ccnc3cc2c1` registered a parasite size of 136 um. In the case of `CCOC(=O)c1c(NC(C)=O)sc2c1CCN(C(C)C)C2`, the parasite size turned out to be 93.2 um. Compound `CCCCSc1oc(C)nc1[P+](c1ccccc1)(c1ccccc1)c1ccccc1` came in with a parasite size of 22.1 um.

In turn, `Cc1cc(Nc2cccc(F)c2)nc(NCc2ccccc2)n1` registered a parasite size of 73.1 um. Compound `O=C(c1cccc(Cl)c1)N1CCN(c2ccc([N+](=O)[O-])c(NC3CC3)c2)CC1` returned a parasite size of 103 um. `Clc1ccccc1-c1nc([P+](c2ccccc2)(c2ccccc2)c2ccccc2)c(N2CCOCC2)o1` registered a parasite size of 20.6 um.

`CCOC(=O)c1c(CSc2ccccc2)oc2cc(CN(C)C)c(O)c(Cl)c12` yielded a parasite size of 188 um.

For `O=[N+]([O-])c1cccc(C(Nc2nccs2)c2ccc3cccnc3c2O)c1` (stereo not drawn), the parasite size amounted to 43.4 um. Turning to `COc1ccc(Nc2cc(C)nc(NCc3ccccc3)n2)cc1`, the parasite size worked out at 57.8 um. With `N#Cc1ccc(NC(=O)NC2CC3CCCC(C2)N3CCc2ccccc2)cc1` (stereo not drawn), the parasite size was found to be 62 um. The compound `O=C1c2ccccc2-n2c1nc1ccccc1c2=O` had a parasite size of 89.5 um. Regarding `CC[n+]1c(C=C2C=Cc3cc(C)ccc3N2C)sc(C)c1C`, the parasite size came out at 14.9 um. In the case of `Cc1oc2c(c1C(=O)NCC1CCCO1)C(=O)c1ccccc1C2=O` (stereo not drawn), the parasite size is 21.4 um.

The compound `c1ccc(Nc2ccnc(Nc3ccccc3)n2)cc1` displayed a parasite size of 92.4 um. Next, `CC1(C)N=C(N)N=C(N)N1c1ccc(I)cc1`: 33.8 um. `COc1ccc2[nH]c3ccccc3c(=O)c2c1` came in with a parasite size of 30.3 um. As for `CC[n+]1c(/C=C/N(C)c2ccccc2)n(-c2ccccc2)c2ccc(-c3nc4ccccc4s3)cc21`, the parasite size amounted to 20.1 um. The compound `O=C1C2=C(Nc3ccccc3SC2c2ccc(Br)cc2)c2ccccc21` (stereo not drawn) yielded a parasite size of 34 um. On to `Cc1cc(C)nc(N=C(N)Nc2cccc(O)c2)n1`, for which the parasite size worked out at 88.2 um. With `Fc1ccc2nc(Nc3nc(-c4ccccn4)cs3)sc2c1`, the parasite size is 22.9 um.

For `CCCC[n+]1ccccc1C=C1Sc2ccccc2N1CC`, the parasite size is 18.5 um. For the compound `c1ccc(-c2nn(-c3ccccc3)[n+](-c3ccccc3)n2)cc1`, the parasite size turned out to be 26.5 um.

In turn, `CCC[n+]1cccc2ccc3cccnc3c21` registered a parasite size of 43.4 um.
